# Some of the results follow. The full chains were built here from the parent and the listed change. Inactive controls read about 0.05.
# B1: TEV protease; numbered along this chain (parent)
# chain: MGESLFKGPRDYNPISSSICHLTNESDGHTTSLYGIGFGPFIITNKHLFRRNNGTLVVQSLHGVFKVKDTTTLQQHLVDGRDMIIIRMPKDFPPFPQKLKFREPQREERICLVTTNFQTKSMSSMVSDTSCTFPSGDGIFWKHWIQTKDGQCGSPLVSTRDGFIVGIHSASNFTNTNNYFTSVPKNFMELLTNQEAQQWVSGWRLNADSVLWGGHKVFMVKPEEPFQPVKEATQL
# Variants of: B1
# Experiment: raw area under fraction-flipped curve 0-4 h after induction (AUC4h, not background-subtracted), DNA-recorder readout of cleavage of the substrate (dimensionless); higher = more cleavage of the substrate by the protease variant
# Conditions: temperature: 34 °C; time window: 0-4 h after rhamnose induction
# Procedure: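 In vivo DNA recorder in E. coli TOP10(DE3) ΔrhaA at 34 °C. Each TEVp single-site mutant (parent TEVp 0) is paired with a single-site variant of the 7-mer TEVs (canonical ENLYFQ|S). The substrate sits between flexible linkers in a Bxb1-sfGFP-TEVs-SsrA fusion, so cleavage stabilises Bxb1 and speeds flipping of a recombination array, read by NGS. The value is the raw area under the fraction-flipped curve over 0-4 h after rhamnose induction (AUC4h), with ≥20 reads per time point. It is not background-subtracted; inactive controls average about 0.047.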
# 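Further: Bxb1 expression induced with 0.2% (w/v) L-rhamnose at OD600 near 0.5, cultures sampled hourly, flipped fraction per protease–substrate barcode pair counted by paired-end Illumina sequencing.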
Variant,area with substrate ENLYFAS,area with substrate ENLYFCS,area with substrate ENLYFES,area with substrate ENLYFGS,area with substrate ENLYFHS,area with substrate ENLYFIS,area with substrate ENLYFKS,area with substrate ENLYFLS,area with substrate ENLYFMS,area with substrate ENLYFNS,area with substrate ENLYFPS,area with substrate ENLYFRS,area with substrate ENLYFSS,area with substrate ENLYFTS,area with substrate ENLYFVS,area with substrate ENLYFWS,area with substrate ENLYFYS,area with substrate ENLYFFS,area with substrate ENLYFDS
K66P,0.0653,0.0456,0.055,0.0546,0.0043,0.0495,0.064,0.0531,0.0522,0.0317,0.0927,0.0923,0.0534,0.0469,0.0202,0.0388,0.0575,–,–
D91H,0.0664,0.0619,0.0736,0.0679,0.0559,0.058,0.0655,0.0466,0.0649,–,0.0624,0.036,0.0586,–,0.0824,0.0571,0.0666,0.0621,–
D91A,0.0482,0.0582,–,–,0.0574,0.0557,0.0481,0.0604,0.0667,–,0.0351,–,–,0.0622,–,–,–,0.0609,0.0582
M122E,0.0616,–,0.0754,–,–,0.0398,0.0666,–,0.0703,0.0726,0.068,0.0492,–,0.0627,0.0538,0.0566,0.0525,0.0732,–
R106F,0.0519,0.0511,–,0.0697,0.0564,0.0485,–,0.055,0.0645,–,0.0615,0.0668,–,0.0581,0.0625,0.0598,0.057,0.0655,0.0819
D82Y,0.0497,0.0596,0.0602,–,–,0.0587,0.0519,–,0.0638,0.0504,0.0703,–,–,0.0533,0.0514,–,–,0.0677,–
L73Y,0.0568,0.0477,0.0522,0.0224,0.052,0.0557,0.0652,0.0512,0.0613,0.0512,0.0568,–,0.0811,0.0513,0.0637,0.0433,0.0505,0.0534,0.0573
K100E,0.0935,–,0.0733,–,–,0.0529,0.0387,–,0.0569,0.0625,–,–,–,0.0629,–,–,–,–,–
K100R,0.0553,–,0.062,–,0.0534,–,0.102,–,–,0.0661,0.0566,–,0.0596,–,0.0482,0.0623,0.0512,0.0708,0.0633
K100V,0.0515,0.0235,0.0763,–,0.0533,0.0572,0.0907,0.0465,0.0682,–,0.0635,0.0581,0.0597,0.0492,0.0478,0.0534,–,0.0612,–
K100L,0.0523,–,0.0618,–,0.0553,0.0669,0.0513,–,0.0701,–,0.0556,–,–,0.0451,0.0722,–,–,0.0618,–
N116Q,0.0517,0.0747,0.0604,0.0641,0.0453,0.0541,0.0527,–,0.0614,–,0.0557,0.0636,0.0509,–,–,0.0446,–,0.0712,0.0677
N116D,0.0539,–,0.0553,0.0346,0.0727,0.0629,–,0.0601,0.0623,–,0.0588,0.0575,0.0609,–,–,0.0555,0.0442,0.0688,–
H62D,0.0435,0.0363,0.0681,0.0492,0.067,0.0594,0.0726,0.0601,0.0645,0.0664,0.0492,0.0626,0.0576,0.0541,0.0559,0.0695,0.0576,0.0571,0.0634
H62V,0.0337,0.064,0.0731,0.056,–,0.0479,0.0582,0.0538,0.0702,0.0568,0.0593,0.0375,–,0.0489,0.073,0.0506,–,–,–
H62F,0.0534,0.0712,0.0629,–,0.0525,0.0559,–,–,0.0801,0.0691,0.0614,–,0.0642,0.0646,–,0.0633,0.0537,0.0618,–
K98I,0.0765,0.0552,0.0732,0.0535,–,0.05,0.0675,–,0.0748,0.042,0.0571,0.0664,0.0569,0.0645,–,0.0543,0.0616,0.0583,0.0536
V67T,0.0641,–,0.0568,0.0726,0.0651,0.0487,–,–,0.0745,0.0612,0.0546,0.0293,–,0.0368,–,0.0523,0.0284,0.0593,–
V67D,0.047,0.0558,0.0523,–,0.0483,0.043,0.0456,–,0.0492,–,0.0476,0.05,0.0439,0.0557,0.0452,0.0508,0.0304,0.0462,0.0497
V67L,0.0596,–,–,–,0.0591,0.0614,0.0608,0.0534,0.0612,0.0927,0.0568,–,–,0.0548,–,–,0.0641,–,–
E103L,0.0626,–,0.143,0.059,0.0907,0.0565,–,–,0.0587,0.074,0.0541,–,–,0.0607,–,–,–,–,0.0661
V113P,0.0608,0.0498,0.0592,0.0552,–,0.0488,0.0637,0.078,0.0609,0.0665,0.0586,0.044,0.0605,–,0.0316,0.0545,–,0.0587,0.059
S123A,0.0603,–,0.057,–,0.0365,0.0511,0.059,0.0587,0.0664,–,0.0675,–,–,–,0.0681,–,–,0.0511,0.0469
S123M,0.0643,0.0501,–,–,0.0576,0.0596,0.0548,0.0781,0.0721,–,–,0.0818,–,0.0309,0.0463,–,0.0525,0.086,–
C111Y,0.0563,0.0572,0.0675,–,0.0674,0.0556,0.0622,0.069,0.077,0.0538,0.0609,0.0492,0.0522,0.043,0.0393,0.0526,0.0588,0.0659,0.053
